44 sequences from the supplement of paper PMC11417369 can be followed below.

± gives the standard deviation of the averaged measurements. Some of the results follow.

This assay relates to PfAP2-I AP2 domain 3 (GST-tagged). As to the kind of experiment: gcPBM binding intensity (ln(normalized median fluorescence intensity)); higher = stronger DNA binding. In short, it runs like this:
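Using an Agilent 4 × 180k array, primer-extended double-stranded 36-bp intergenic genomic probes and negative controls were exposed for 1 h to GST-fused P. falciparum DNA-binding domains expressed in E. coli. Binding was carried out in 1× PBS with 1% milk, 0.2 mg/ml BSA, 0.5% salmon testes DNA and 0.03% Triton X-100, and protein was detected with Alexa488 anti-GST antibody and a 488 nm scan. Binding intensity is the highest Masliner-normalised natural-log median intensity across replicate spots of either probe orientation.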
Take “TTTTATACATATTTTACACACTAAAATATACCTATA [CACACA_site6286]”: the “gcPBM binding intensity (ln)” value came to 8.23 ± 0.71.

For “AAAAAAAAAAAAAAAAGTACAAAAAGAAGAAAAAAA [XGTACX_site6521]”, the “gcPBM binding intensity (ln)” value is 8.59 ± 0.5.

Take “TTTTTTTTTTTTACGTGTACATAAATGTTAAGTAAT [XGTACX_site3901]”: the “gcPBM binding intensity (ln)” value came to 8.2 ± 0.58.

For “AAAATATAGGTATGCACACACATATACTTCTGTGCA [CACACA_site1409]”, the “gcPBM binding intensity (ln)” value is 8.68 ± 0.49.

Take “TTTTTTTTTTTTTTTTTTTTTTTATGTTCTTAAAAA [GTGCAC_negctrl_site62]”: the “gcPBM binding intensity (ln)” value stood at 8.07 ± 0.87.

Take “TATAAATATTTATGTACACACATATACATGTTGAAT [CACACA_site5684]”: the “gcPBM binding intensity (ln)” value came out at 7.95 ± 0.43.

For the sequence “TTATATTCTTTTCTCTTTCTACTTTTTTTTTTTTTT [XGTACX_negctrl_site317]”, the “gcPBM binding intensity (ln)” value was 7.88 ± 0.52.

On to “AAGAAAAACTTATATATATATATATATATATATATA [TGCATGCA_negctrl_site466]”, for which the “gcPBM binding intensity (ln)” value was found to be 9.36 ± 0.85.

Take “TCATACATGTATATGTGTACATATAATGTATATTCC [XGTACX_site6082]”: the “gcPBM binding intensity (ln)” value turned out to be 7.64 ± 0.38.

For the sequence “TTTTTTTAATGATATTGTACATTAATAAAAAATATG [XGTACX_site1719]”, the “gcPBM binding intensity (ln)” value worked out at 7.76 ± 0.14.

“TCTTTTTCAAGATGACGTACTTAGATTAATATAAAA [XGTACX_site3931]”: the “gcPBM binding intensity (ln)” value worked out at 7.79 ± 0.4.

Take “ATTTGATATATAATAATACACACTTACATAATTAAT [CACACA_site290]”: the “gcPBM binding intensity (ln)” value came out at 7.88 ± 0.43.

On to “ATATGATCATTTTATCATTTTGCTTTTTCTTTTTTT [CACACA_negctrl_site1325]”, for which the “gcPBM binding intensity (ln)” value came to 7.46 ± 0.64.

“ATCGTGTTAAATGTTGTGCACATATAAATTACAAAA [GTGCAC_site9822]”: the “gcPBM binding intensity (ln)” value was determined as 10.605 ± 0.007.

“AATTTTGGAACGTGCACACATATGTAATATATATAT [CACACA_site3067]”: the “gcPBM binding intensity (ln)” value was found to be 10.7 ± 0.085.

Consider “TAAATATATAATAAATGTACATATTAATATTATGGT [XGTACX_site1498]”, for which the “gcPBM binding intensity (ln)” value came out at 7.84 ± 0.46.

Turning to “CAATGTTAACATATTACACACATATGTATTTATAAC [CACACA_site7314]”, the “gcPBM binding intensity (ln)” value turned out to be 7.88 ± 0.54.

On to “AAAAAAAATTTAATTGCACACAGGAAAATATAATTT [CACACA_site3810]”, for which the “gcPBM binding intensity (ln)” value worked out at 9.24 ± 0.18.

For the sequence “TAAATACAGAGGAAAATACACACGTATATATATAAA [CACACA_site3410]”, the “gcPBM binding intensity (ln)” value turned out to be 7.67 ± 0.6.

Consider “TATAAATATACAAACACACATACAAACATATATATA [CACACA_site1120]”, for which the “gcPBM binding intensity (ln)” value stood at 8.11 ± 0.62.

For “TTAATACCCAGACACACACACACAAAATAAAATACA [CACACA_site7968]”, the “gcPBM binding intensity (ln)” value was determined as 8.07 ± 0.18.

“AAATTTCATGGGTATTGTACATAATTTTATTATATA [XGTACX_site4988]”: the “gcPBM binding intensity (ln)” value amounted to 7.58 ± 0.42.

For “ACAAAACTGTCTTTCACACAGAAATAAAAAAAAAAA [CACACA_site5829]”, the “gcPBM binding intensity (ln)” value was 7.82 ± 0.77.

As for “TGATAAGGATGTGAATTACTCAAAGGAAGTAATCAT [CACACA_negctrl_site1432]”, the “gcPBM binding intensity (ln)” value was 7.53 ± 0.7.

Consider “ACATAAGATGAAAAATGTACATTCAAAAAATGAAAT [XGTACX_site3227]”, for which the “gcPBM binding intensity (ln)” value is 7.62 ± 0.68.

With “TTTTAAATATGCCATACACACTACTATATAATAAAT [CACACA_site5119]”, the “gcPBM binding intensity (ln)” value stood at 7.81 ± 0.59.

Consider “AAAAAAAAAAAATATTGTAGAATATGATGACTTTGT [GTGCAC_negctrl_site554]”, for which the “gcPBM binding intensity (ln)” value came to 7.47 ± 0.6.

Consider “ATTTTATTTTCATATGAACACACATATATATATTAT [CACACA_site8741]”, for which the “gcPBM binding intensity (ln)” value amounted to 8.35 ± 0.45.

Regarding “AACAACCAAAGGCACACACACAAAAAAAAAAATATA [CACACA_site399]”, the “gcPBM binding intensity (ln)” value came out at 8.26 ± 0.15.

As for “CTGCGTTTAATATGCGTGCACCTTGGTTTTATATCT [GTGCAC_site9525]”, the “gcPBM binding intensity (ln)” value was 10.5 ± 0.18.

For “TTATACACAAAAAAAAAAATATATATATATATATAT [XGTACX_negctrl_site5]”, the “gcPBM binding intensity (ln)” value was found to be 9.44 ± 0.13.

Turning to “TGTTGTATTGAAGCTAAAAAATGAGGCAAAAAAAAA [CACACA_negctrl_site1189]”, the “gcPBM binding intensity (ln)” value was 8.3 ± 0.43.

Take “TTTATATAATATAAATTTTTTTTGCAGTAATAAAAA [TGCATGCA_negctrl_site570]”: the “gcPBM binding intensity (ln)” value turned out to be 8.02 ± 0.52.

Take “ACTTCAAAAAAAAAAAAATATATATATATATATTAT [GTGCAC_negctrl_site158]”: the “gcPBM binding intensity (ln)” value is 7.53 ± 0.33.

As to “ATTTATGAGTAATACACACACTTGTGGATATATTAC [CACACA_site7735]”, the “gcPBM binding intensity (ln)” value is 7.62 ± 0.61.

As to “TAAATATCAAGACACACACACAAAAGTGAATAAATA [CACACA_site7723]”, the “gcPBM binding intensity (ln)” value is 7.55 ± 0.49.

“AGATATTATTTATATATTTATATATATATATAGATA [TGCATGCA_negctrl_site77]”: the “gcPBM binding intensity (ln)” value amounted to 7.57 ± 0.26.

Take “AGAGAAAAAAAAAATTGTACGTATGTAATAATATGC [XGTACX_site2981]”: the “gcPBM binding intensity (ln)” value was determined as 8.14 ± 0.52.

As for “AAAGTAAAAGAAAGCACACACACATGGATTTATGTA [CACACA_site5997]”, the “gcPBM binding intensity (ln)” value is 7.87 ± 0.42.

For “TTCTTTTTAAATTACACACACATATATATATGTATA [CACACA_site3515]”, the “gcPBM binding intensity (ln)” value worked out at 7.96 ± 0.4.

Take “TATATATATGTATGTGGTACTTATATTATATACATA [XGTACX_site4550]”: the “gcPBM binding intensity (ln)” value is 7.89 ± 0.68.

“TATTTACACCCATGCGCACACATAAATAAATAATAG [CACACA_site5350]”: the “gcPBM binding intensity (ln)” value worked out at 9.14 ± 0.014.

Turning to CCATGTAGTGAATAGGTGCATATCAAAAAAAAAAAA, the “gcPBM binding intensity (ln)” value turned out to be 10.3 ± 0.2.

Regarding “ATACATATGGTGGATCGTACATATATATAATATGTA [XGTACX_site8631]”, the “gcPBM binding intensity (ln)” value worked out at 7.64 ± 0.47.
